The record followed here is paper PMC9463443 (Cell Discovery, 2022).

This test deals with T1, CENP-OPQUR sub-complex (human, UniProt Q9BU64; Q6IPU0; Q7L2Z9 1-268; Q71F23 1-418; Q13352).
T1 construct: CENP-O, human; CENP-P, human; CENP-Q, human; CENP-U, human; CENP-R, human; source: Sf9, purified (Ni-NTA, Mono S, SEC); copies: + + + +
Description: SEC; assembly of CCAN with wild-type CENP-LN or CENP-L^4EN^2E, judged by elution profile (Supplementary Fig. S6c, d); sub-complexes mixed at 1:1:1. The following applies: both partners purified. A general note: Size exclusion chromatography separates by hydrodynamic size, large species first.

B1: CENP-L^4EN^2E mutant (complex)
chain 1: MDSYSAPESTPSASSRPEDYFIGATPLQKRLESVRKQSSFILTPPRRKIPQCSQLQEDVDPQKVAFLLHKQWTLYSLTPLYKFSYSNLKEYSRLLNAFIVAEKQKGLAVEVGEDFNIKVIFSTLLGMKGTQRDPEAFLVQIVSKSQLPSENREGEVLWTGWFCCVFGDSLLETVSEDFTCLPLFLANGAESNTAIIGTWFQKTFDCYFSPLAINAFNLSWMAAMWTACKMDHYVATTEFLWSVPCSPQSLDISFAIHPEDAKALWDSVHKTPGEVTQEEVDLFMDCLYSHFHRHFKIHLSATRLVEVSTSVASAHTDGEIEILCHKYLIGVLAYLTELAIFQIE
chain 2: [letters of about 350 residues left out]
notes: CENP-L, human, CENP-L^4E; CENP-N, human, CENP-N^2E; also called CENP-L^2EN^4E (as printed in the methods)
Take B1: the binding result is “binds”.
